Assays:
P301L tau FRET biosensor = biological target: T1, P301L tau FRET biosensor (Homo sapiens, UniProt P10636, P618L); assay: P301L tau FRET biosensor in SH-SY5Y cells, dose-response; type: cell-based; details: 96 hrs, read-out: EC50, FRET reduction, P301L tau biosensor in SH-SY5Y cells
T1 construct: cDNA encoding full-length 2N4R tau (441 amino acids); expressed in transfected cells; host or cells: SH-SY5Y, transient
Method: (§1) HEK293 and SH-SY5Y cells (ATCC) were cultured in phenol red-free Dulbecco's Modified Eagle Medium (DMEM, Gibco) supplemented with 2 mM L-Glutamine (Invitrogen), heat-inactivated 10% fetal bovine serum (FBS HI, Gibco), 100 U/ml penicillin and 100 μg/ml streptomycin (Gibco). Cell cultures were maintained in an incubator with 5% CO2 (Forma Series II Water Jacket CO2 Incubator, Thermo Scientific) at 37° C. […] To generate stable cell lines expressing GFP-tau-RFP or tau-GFP only, HEK293 cells were transiently transfected using Lipofectamine 3000 with GFP-tau-RFP or tau-GFP DNA plasmids. Transiently transfected cells were treated with G418 (Enzo Life Sciences, Farmingdale, N.Y.) to eliminate non-expressing cells. Stable cell lines expressing GFP-tau-RFP or tau-GFP with the largest population of expressing cells were selected by fluorescence microscopy. The GFP-linker-RFP (linker contains 32 amino acids, GFP-32AA-RFP) control stable cell line was generated as described previously. The control cells expressing only free soluble fluorophores (GFP or RFP only) were generated by transiently transfecting HEK293 cells using Lipofectamine 3000 with plasmids containing GFP or RFP DNAs at the same plasmid concentration as the inter-molecular tau FRET biosensor.
(§2) The compound was dissolved in DMSO to make a 10 mM stock solution, which was serially diluted in 96-well mother plates. […]

[1] = system: SH-SY5Y human neuroblastoma cells transfected with P301L tau; type: cell-based
Method: Cell cytotoxicity was measured using the CytoTox-Glo (Promega Corporation) luminescence assay kit. […] The transfected cells were then plated at a density of 10000 cells/well in white solid 96-well plate (Corning) with a total volume of 100 μl, followed by treatment with MK-886 at eight different concentrations (1 nM to 2 μM), as well as DMSO-only controls, for another 72 hours. […] The first luminescence reading was measured using a Cytation3 Cell Imaging Multi-Mode Reader luminometer (BioTek). 50 μl of Lysis Reagent with 1% Triton X-100 was then added, followed by incubation at room temperature for 15 min, and luminescence was measured again using the luminometer. Cell cytotoxicity was calculated following the manufacturer protocol. Effect of MK-886 on the suppressors of inhibitors of apoptosis (IAPB) (YM-155 and UC-112) was tested with untransfected SH-SY5Y cells plated in white solid 96-well plate with treatment of YM-155 (1 μM) or UC-112 (1 μM) in the absence or presence of MK-886 (0.5, 1 or 2 μM).

P301L tau = P301L tau (Homo sapiens, UniProt P10636, P618L); assay: Western blot of tau level and Ser396 phosphorylation in SH-SY5Y cells; type: cell-based; details: MK-886 2 μM, 72 hours
Chain of P301L tau (P10636 1-441 isoform P10636-8 P301L): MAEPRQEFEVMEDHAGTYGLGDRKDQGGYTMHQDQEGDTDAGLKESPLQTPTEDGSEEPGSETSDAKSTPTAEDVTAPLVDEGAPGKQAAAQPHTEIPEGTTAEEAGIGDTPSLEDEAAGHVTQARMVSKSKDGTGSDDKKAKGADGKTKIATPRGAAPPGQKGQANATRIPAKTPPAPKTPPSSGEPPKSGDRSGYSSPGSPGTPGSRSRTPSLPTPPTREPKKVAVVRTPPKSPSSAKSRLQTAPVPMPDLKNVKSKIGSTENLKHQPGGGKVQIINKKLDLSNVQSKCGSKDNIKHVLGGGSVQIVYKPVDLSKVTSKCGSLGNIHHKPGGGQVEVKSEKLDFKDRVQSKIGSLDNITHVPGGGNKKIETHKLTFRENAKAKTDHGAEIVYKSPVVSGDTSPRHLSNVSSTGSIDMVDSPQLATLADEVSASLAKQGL
Method: To test the expression of tau FRET biosensors, HEK293 cells were plated in a 100 mm plate at a density of 5×10^6 cells/plate and transfected with tau-GFP/RFP (tau FRET biosensor) plasmid. […] In both cases, cells were lysed for 30 minutes on ice with radioimmunoprecipitation assay (RIPA) lysis buffer (Pierce RIPA buffer, Thermo Fisher Scientific) containing 1% protease inhibitor (Clontech, Mountain View, Calif.) and 1% phosphatase inhibitors (Millipore Sigma), and centrifuged at 15,000 g at 4° C. for 15 min. The total protein concentration of lysates was determined by bicinchoninic acid (BCA) assay (Pierce), and equal amounts of total protein (60 μg) were mixed with 4× Bio-Rad sample buffer and loaded onto 4%-15% Trisglycine sodium dodecyl sulfate-polyacrylamide gel electrophoresis (SDS-PAGE) gels (Bio-Rad, Hercules, Calif.). Proteins were transferred to polyvinylidene fluoride (PVDF) membrane (Immobilon-FL, EMD Millipore, Billerica, Mass.) and probed using antibodies against tau (Tau-5, Thermo Fisher Scientific) or antibody specific to Serine 396 of tau (Phospho-Tau 5396, Thermo Fisher Scientific) with β-actin (ab8227, Abcam, Cambridge, Mass.) used as loading control. Blots were quantified on the Odyssey scanner (LI-COR Biosciences, Lincoln, Nebr.).

[2] = biological target: purified full-length 2N4R P301L tau protein (Homo sapiens, UniProt P10636, P618L); assay: Surface plasmon resonance (SPR) binding assay, P301L tau; details: read-out: Kd, binding to purified P301L tau protein, steady-state, immobilized tau, 25° C.
Chain of purified full-length 2N4R P301L tau protein (P10636 1-441 isoform P10636-8 P301L): as above
Method: Full-length 2N4R WT tau proteins were purified from E. coli using previously published protocols. Full-length tau was expressed with a cleavable His-tag. After elution from a nickel column, cleavage of the His-tag was achieved by incubation with tobacco etch virus (TEV) protease at room temperature for at least 4 hours, followed by passing through the His-tag column again to separate cleaved and uncleaved protein and remove the TEV. Final purification was performed by size-exclusion chromatography and the purity of the proteins was assessed by 4%-15% SDS-PAGE gels (Bio-Rad) under reducing conditions, followed by Coomassie staining. Fractions of pure proteins from the gels were pooled together and the protein stock concentrations were measured using the BCA assay (Thermo Fisher Scientific). Full-length 2N4R P301L tau protein was purchased (rPeptide).
Binding affinity between full-length 2N4R WT or P301L tau and the hit compounds were determined by SPR analysis using BIAcore 5200. […]
For direct binding assays to the tau proteins, hit compounds at eight different concentrations (1 nM to 5 μM), as well as DMSO-only controls, were prepared in HEPES-EP containing a total of 2% DMSO. […] All the samples, along with blanks from buffer and DMSO-only controls, were measured on a 96-well microplate (Biacore, GE Healthcare) at 25° C. […]

[3] = biological target: T2, P301L tau FRET biosensor (tau-GFP/RFP) (Homo sapiens, UniProt P10636, P618L); assay: P301L tau inter-molecular FRET biosensor in HEK293 cells, dose-response; type: cell-based
T2 construct: cDNA encoding full-length 2N4R tau (441 amino acids); expressed in transfected cells; host or cells: HEK293, transient
T2 sequence (P10636 1-441 isoform P10636-8 P301L): as above
T2 sequence (P10636 1-441 isoform P10636-8 P301L): as above
Method: as §1, §2

T1 sequence (P10636 1-441 isoform P10636-8 P301L): as above
T1 sequence (P10636 1-441 isoform P10636-8 P301L): as above

## CC(C)c1ccc2c(c1)c(SC(C)(C)C)c(CC(C)(C)C(=O)O)n2Cc1ccc(Cl)cc1 [MK-886]
P301L tau FRET biosensor
  EC50: 1060 nM
[1]
  IC50: 523 nM
P301L tau
  phosphorylation state of tau (Serine 396): no changes
  relative levels of expressed tau (Tau-5 antibody): no changes
[2]
  Kd: 375 nM
[3]; dose response
  FRET level of P301L biosensor after treatment: lowered the FRET level of P301L biosensor to the basal FRET level of WT tau biosensor
[3]; read-out: EC50, decrease of FRET efficiency, P301L tau biosensor
  EC50: 1840 nM

Source: patent US11726081B2, “Methods to identify modulators of tau protein structure” (REGENTS OF THE UNIVERSITY OF MINNESOTA, priority 2019, dated 2023)
